# From patent publication US20240092853A1 (Hoffmann-La Roche, published 2024)
# T1: IL-2 receptor on human NK cells (CD3neg CD56pos cells of fresh human PBMCs) (human, UniProt P14784 27-551; P31785 23-369)
# T1 sequence (looked up) 1: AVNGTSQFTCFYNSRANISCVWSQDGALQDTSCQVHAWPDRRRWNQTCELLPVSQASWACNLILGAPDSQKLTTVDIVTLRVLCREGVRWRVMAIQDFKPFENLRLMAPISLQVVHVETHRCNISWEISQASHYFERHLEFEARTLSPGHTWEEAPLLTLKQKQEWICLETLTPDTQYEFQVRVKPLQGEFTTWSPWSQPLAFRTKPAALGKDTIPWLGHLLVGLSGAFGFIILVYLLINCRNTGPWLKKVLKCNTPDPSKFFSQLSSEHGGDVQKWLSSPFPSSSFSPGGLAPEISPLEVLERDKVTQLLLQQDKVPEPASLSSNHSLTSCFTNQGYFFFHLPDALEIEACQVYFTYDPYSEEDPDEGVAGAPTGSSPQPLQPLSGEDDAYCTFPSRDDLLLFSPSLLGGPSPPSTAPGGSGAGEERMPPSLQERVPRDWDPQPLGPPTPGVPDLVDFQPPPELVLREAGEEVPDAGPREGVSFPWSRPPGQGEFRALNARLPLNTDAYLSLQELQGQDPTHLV
# T1 sequence (looked up) 2: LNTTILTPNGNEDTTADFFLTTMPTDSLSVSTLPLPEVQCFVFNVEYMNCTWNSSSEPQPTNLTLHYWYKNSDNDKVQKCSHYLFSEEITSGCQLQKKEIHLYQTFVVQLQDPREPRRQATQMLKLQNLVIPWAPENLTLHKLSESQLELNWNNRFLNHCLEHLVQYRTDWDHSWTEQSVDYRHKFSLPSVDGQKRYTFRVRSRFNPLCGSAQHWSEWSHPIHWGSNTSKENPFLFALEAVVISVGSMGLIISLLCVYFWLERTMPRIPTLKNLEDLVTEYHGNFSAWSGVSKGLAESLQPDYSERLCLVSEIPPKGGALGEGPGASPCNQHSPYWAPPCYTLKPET
# Biological target: T1, IL-2 receptor on human NK cells (CD3neg …)
# Assay: cell-based or functional assay
binder,measurement,value
Proleukin (ligand) not shown,"% AUC at pH 6.5 (pSTAT5 in NK cells, normalized to CD8 IgG IL2v at pH 7.4)",61.3%
same,"% AUC at pH 7.4 (pSTAT5 in NK cells, normalized to CD8 IgG IL2v at pH 7.4)",120%
